Test results: publication PMC12136788
Numbering of substitutions follows the chain as printed. The list shows a part of the results.

B1: chr5:134606522:134606623:-|3pUTR|ENSG00000152700|msi1_unk|FALSE|overlapping (ssRNA)
RNA: GGGAGUUCUACAGUCCGACGAUCAACUAUAAACCAUAUUUAAAAGCUCAUCAUGUUAAAUUUUUUAUGUACUUUUCUGGAACUAGUUUUUAAAUUUUAGAUUAUAUGUCCACCUAUCUUAAGUGUACAGUUAAUAAUUAGCUUCAACAGAGGAUUGAGCAUCA
B2: ENSG00000196526:stop:overlap|stop_codon|ENSG00000196526|stop_codon|NA|stop_codon (ssRNA)
RNA: GGGAGUUCUACAGUCCGACGAUCCCCCCUGCCGAGGGCAUGUGCUGCGGAAGGCCAAGGAAUGGGAAUUGAAGAACGGGACCUAGGGGACAGCAGCACCACUCCAGCCUCAGAGACUGCACACCCCCUUGCCUGUAUCCUCAUCAACAGAGGAUUGAGCAUCA
B3: chr11:72288215:72288316:-|3pUTR|ENSG00000162129|unk|total|mutant (ssRNA)
RNA: GGGAGUUCUACAGUCCGACGAUCACCCAGCUAAUUUUUUUUGUAUUUUCCGUAAAGACGGGGUUUCACCAUGUUUGCCAGGCCCGUCUCAAACUCCUGGUCUCAAGUGAUCCACCCACCUUGGCCUCCCAGAGUGCUGAGAUUCAACAGAGGAUUGAGCAUCA
B4: chr19:1826877:1828631:-|CDS|ENSG00000079313|control|control|control (ssRNA)
RNA: GGGAGUUCUACAGUCCGACGAUCCGACAGGAAGAGCACCAAGGCCCCGUCGGGGAAGCUAGUGGAGCGGAAAGCCCGCUCACUAGACGAGGGCGCCUCCCAGGACGCCCCCAAGCUGAAGAAGCGGGCCCUGAGCCACGCCGACAACAGAGGAUUGAGCAUCA
B5: chr14:100882551:100882663:-|CDS|ENSG00000254656|unk|total|mutant (ssRNA)
RNA: GGGAGUUCUACAGUCCGACGAUCGCUCUCCCCAGACCCUAUCAUACCUCAGAACGUGAUUCACUUCAUCCUAAAGGACAUGCCCGGGUUCUUUGUGCUUUCUUAUGGCCAGGAAGUCCUGAUCUACUCAAUGAGUCAGGAGGACAACAGAGGAUUGAGCAUCA
B6: chr3:149738563:149738664:-|3pUTR|ENSG00000114744|unk|FALSE|unique (ssRNA)
RNA: GGGAGUUCUACAGUCCGACGAUCUGGAUUAUUAUGGGUCCUUGAUAAAUUCUCAAAGCCUUUUUUUUUGUUCAUCUCUAAAAUAGGAAUAUAGGAUUACCUACCACAUUGACUCGUAAGGACUAUAUGAGACCAUGUAUAUAGCAACAGAGGAUUGAGCAUCA
B7: chr17:66805439:66805473:+|3pUTR|ENSG00000154229|msi1_unk|total|mutant (ssRNA)
RNA: GGGAGUUCUACAGUCCGACGAUCCACAAUUGUGCUCUAUUUGUGCAGGUUCUUGUUUCUAAUCCUCUUUUCUAAUUAAGUUUCCGCUGAAUCCCUUGCUUCUGUGCUUUCCCUCCCUGCACAUGGGCACUGUAUCAGACCGAUCAACAGAGGAUUGAGCAUCA
B8: ENSG00000127914:stop:overlap|stop_codon|ENSG00000127914|stop_codon|NA|stop_codon (ssRNA)
RNA: GGGAGUUCUACAGUCCGACGAUCGGCAGCACCACAGUGCGAGACCCACAGCUCCCCUUUCUUUGAAAUUCUUUCACACUCAUUAGGAUAAUCAAAGCUUCCAGUUUAGUGCAUGAGCUAAUUAUUAAGUUAGCCAAAGCUUAACAACAGAGGAUUGAGCAUCA
B9: chr16:30026608:30026843:-|CDS|ENSG00000149926|control|control|control (ssRNA)
RNA: GGGAGUUCUACAGUCCGACGAUCGGUCAAAGGGCAUGGAGGGGACGACGGAGCGGCCAGAGCCCCGGGCAGCACGUGGGCCAUAGCGCGUGGCUACCUGCACAAGGAGUUCCUCAUGGUGCUCCACCAUGCCGCCAUGGUGCUCAACAGAGGAUUGAGCAUCA
B10: chr14:75059847:75060235:-|three_prime_utr|ENSG00000119640|control|control|control (ssRNA)
RNA: GGGAGUUCUACAGUCCGACGAUCAACCACAUUAAAAAAAUAAAAAGGAUAACUGGAAAAUCCCAAAAUAUUUGGAAACCAUAUAGCACACUUACUUCUAAAAUUGUGGUAGAAUACAUAUAACAUAGAAAUUAUUGUUCUAACCAACAGAGGAUUGAGCAUCA
B11: chr1:27823432:27823533:+|3pUTR|ENSG00000117758|unk|total|mutant (ssRNA)
RNA: GGGAGUUCUACAGUCCGACGAUCUUUCAAUAAAAUUACUGUCUUGUAAUAUAAAUGUUGUCCACUUCCCUUUUCCACAGGCCCCGAACAGUUAAAGGGAACAUAAUUUGUUCCGGCUCCCACAUAAAUGUGAAUCUGGCCAACCAACAGAGGAUUGAGCAUCA
B12: chr7:56101660:56101848:-|3pUTR|ENSG00000106153|msi1|FALSE|unique (ssRNA)
RNA: GGGAGUUCUACAGUCCGACGAUCUGGAGAGAUGGAAAAUCAGCUCUCAUAACUAAGUUAAUUUAGUAUAAAAAUAGAAUUGAUAGUGAGGGUAUAAAGUGUAACCAUCAGUUAAACCUCUCCUGUCAUUCCUGGCUUCCUUGCCAACAGAGGAUUGAGCAUCA
B13: chr8:86558718:86558819:+|3pUTR|ENSG00000085719|unk|FALSE|unique (ssRNA)
RNA: GGGAGUUCUACAGUCCGACGAUCCUGUUGUUGUUUUUGUUUACUUUCAUAUGAUGAAAAUGCUGUGUUUAAGUGUUUGUCAAUAGGAAGAAUGGAAAACUGUUGGGAUGAUGUGGUUUGCAGGUUGCUGUGCCUGAUUCACAGCAACAGAGGAUUGAGCAUCA
B14: chr11:74254050:74254151:+|3pUTR|ENSG00000214517|unk|total|mutant (ssRNA)
RNA: GGGAGUUCUACAGUCCGACGAUCUUGGAAGACCCAGAGAGGCCAAGAUCCCAUCCUCCGCCACCGCGAGCGGUGGUGGUGGACCGCAUCACAAGAAACGAGCCUGAAAAUCAGGUCCAGCCGGUCCAAGCACAUGGCCUCCCACAACAGAGGAUUGAGCAUCA
B15: chr7:56101660:56101848:-|3pUTR|ENSG00000106153|msi1|total|mutant (ssRNA)
RNA: B12 RNA with U63C, A64C, U74C, A75C, U83C, A84C
B16: chr10:59791032:59791133:-|3pUTR|ENSG00000108091|msi1|FALSE|unique (ssRNA)
RNA: GGGAGUUCUACAGUCCGACGAUCUAAUCAUAAUACAGUUCUCAGAUGCAGGGAAGAAGUUUGGCAUUUAAUCAUUGAGGCUUUAGGUUUUUGAUGUGAUCAGACUGGGCCAUGUCAAACCCGGAAUUUUCACCAACAGUUCACCAACAGAGGAUUGAGCAUCA
B17: chr5:149847740:149847841:+|3pUTR|ENSG00000155846|unk|total|mutant (ssRNA)
RNA: GGGAGUUCUACAGUCCGACGAUCAUUGAACAAAGCUGCUUCUGUCUGUGAGUUUCCAUGGUGUUGACGUUCCACUGCCACAUCCGUGUCCUCGCUUCCAACGGGUUGUCCCGGGUGCACCUCGAAGUGCCGGGUCCGUCACCCCAACAGAGGAUUGAGCAUCA
B18: chr16:16142165:16142266:+|3pUTR|ENSG00000103222|msi1|FALSE|unique (ssRNA)
RNA: GGGAGUUCUACAGUCCGACGAUCAUUGAUGUGGGGUAAAUAUUAAGGAGAUGGCCUCAUGGGAAUUUGACCUUGACUAGAAAUAGAGACUGAGAGUGAGCAACCAGCUGGAAGGUACUAUGCCAGUCCUAGCAGAAAAAUGUGCAACAGAGGAUUGAGCAUCA
B19: chr15:40903593:40903694:+|3pUTR|ENSG00000104142|msi1|FALSE|unique (ssRNA)
RNA: GGGAGUUCUACAGUCCGACGAUCCAGUAGAGGCCCUUCACCUGGAGAAGUCAGAAAUCUGACCCAAUUCCACCCCCUGCCUCUAGCACCUCUUCUGUCCCUGUCAUUCCCCACACACGUCCUGUUCACCUCGAGAGAGAGAGACAACAGAGGAUUGAGCAUCA
B20: chr10:126015758:126015859:-|3pUTR|ENSG00000148848|msi1|FALSE|unique (ssRNA)
RNA: GGGAGUUCUACAGUCCGACGAUCAAAUACUCAGAUAAGGUAAAAUGCCAUGAUGCCUCUGUCUUCUGGACUGGUUUUCACAUUAGAAGACAAUUGACAACAGUUACAUAAUUCACUCUGAGUGUUUUAUGAGAAAGCCUUCUUCAACAGAGGAUUGAGCAUCA
B21: chr2:128193554:128193655:+|3pUTR|ENSG00000136731|msi1|total|mutant (ssRNA)
RNA: GGGAGUUCUACAGUCCGACGAUCCCUUGUCAAGGCUCUGCCUGAAUGAGUUUUCAUCUGAUUGUGGGGACCAAGUCCCUGAGCCGAGGGCCAAGAGCCCGGGACAGGGGGAAGAGACUGGCCCAGGUGGCCGGGAGGAAAGAACAACAGAGGAUUGAGCAUCA
B22: chr7:139716074:139716127:-|CDS|ENSG00000064393|msi1_unk|FALSE|overlapping (ssRNA)
RNA: GGGAGUUCUACAGUCCGACGAUCGAAGCAAAACAAGUUUAGCCCCUUGCCCCUCAAAUACAUUCGCCCAGUUCUCCAGCAGGUAGCCACAGCCCUGAUGAAACUCAAAAGCCUAGGUCUUAUCCACGCUGACCUCAAACCAGACAACAGAGGAUUGAGCAUCA

Target: MSI1 full-length (mouse, UniProt Q61474 1-362)
Assay: nsRBNS (natural sequence RNA bind-n-seq); RBNS binding buffer (assumed for nsRBNS): 25 mM Tris pH 7.5, 150 mM KCl, 3 mM MgCl2, 0.01% Triton X-100, 500 ug/ml BSA, 20 U/ml SUPERase-In, 4 C; UNK is unkempt and MSI1 is Musashi-1; names of the RNAs are library labels; protein concentration not given here; high values mean tight binding

Chain of UniProt Q61474 (Q61474 whole entry): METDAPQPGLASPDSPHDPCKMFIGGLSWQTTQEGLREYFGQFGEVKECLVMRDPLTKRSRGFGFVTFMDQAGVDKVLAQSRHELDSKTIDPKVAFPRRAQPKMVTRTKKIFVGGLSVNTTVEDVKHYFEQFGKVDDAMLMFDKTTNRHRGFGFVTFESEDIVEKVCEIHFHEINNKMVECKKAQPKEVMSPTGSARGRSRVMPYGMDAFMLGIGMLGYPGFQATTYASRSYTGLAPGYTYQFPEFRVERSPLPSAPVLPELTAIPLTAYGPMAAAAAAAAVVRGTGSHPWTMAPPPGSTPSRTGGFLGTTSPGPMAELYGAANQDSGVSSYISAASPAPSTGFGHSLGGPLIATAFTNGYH

Binder	binding signal
B1	13.2 enrichment R
B2	1.09 enrichment R
B3	0.928 enrichment R
B4	0.377 enrichment R
B5	0.418 enrichment R
B6	0.662 enrichment R
B7	0.976 enrichment R
B8	0.53 enrichment R
B9	0.5 enrichment R
B10	5.32 enrichment R
B11	0.336 enrichment R
B12	5.86 enrichment R
B13	0.252 enrichment R
B14	0.249 enrichment R
B15	0.218 enrichment R
B16	0.504 enrichment R
B17	0.513 enrichment R
B18	1.02 enrichment R
B19	0.581 enrichment R
B20	0.241 enrichment R
B21	0.364 enrichment R
B22	1.02 enrichment R
